# Laboratory results published in PubChem BioAssay AID504332 (National Center for Advancing Translational Sciences (NCATS), 2011).
# Screen size: about 350,000 compounds; about 31,000 (8.9%) were called active. Inconclusive means that the source gave no clear call. Such entries were picked first, then a sample of the others. The call rests on the fitted dose curve; in most records, active means well fitted inhibition curve with a large enough effect; inconclusive means small, poorly fitted or top-dose-only effect; inactive means no such curve, though single readings can be large or run the other way. Where the call is inconclusive, the potency comes from a doubtful curve fit.
# Target: Histone-lysine N-methyltransferase EHMT2 (Homo sapiens) (UniProt Q96KQ7)
# UniProt Q96KQ7, sequence (Q96KQ7 whole entry, looked up): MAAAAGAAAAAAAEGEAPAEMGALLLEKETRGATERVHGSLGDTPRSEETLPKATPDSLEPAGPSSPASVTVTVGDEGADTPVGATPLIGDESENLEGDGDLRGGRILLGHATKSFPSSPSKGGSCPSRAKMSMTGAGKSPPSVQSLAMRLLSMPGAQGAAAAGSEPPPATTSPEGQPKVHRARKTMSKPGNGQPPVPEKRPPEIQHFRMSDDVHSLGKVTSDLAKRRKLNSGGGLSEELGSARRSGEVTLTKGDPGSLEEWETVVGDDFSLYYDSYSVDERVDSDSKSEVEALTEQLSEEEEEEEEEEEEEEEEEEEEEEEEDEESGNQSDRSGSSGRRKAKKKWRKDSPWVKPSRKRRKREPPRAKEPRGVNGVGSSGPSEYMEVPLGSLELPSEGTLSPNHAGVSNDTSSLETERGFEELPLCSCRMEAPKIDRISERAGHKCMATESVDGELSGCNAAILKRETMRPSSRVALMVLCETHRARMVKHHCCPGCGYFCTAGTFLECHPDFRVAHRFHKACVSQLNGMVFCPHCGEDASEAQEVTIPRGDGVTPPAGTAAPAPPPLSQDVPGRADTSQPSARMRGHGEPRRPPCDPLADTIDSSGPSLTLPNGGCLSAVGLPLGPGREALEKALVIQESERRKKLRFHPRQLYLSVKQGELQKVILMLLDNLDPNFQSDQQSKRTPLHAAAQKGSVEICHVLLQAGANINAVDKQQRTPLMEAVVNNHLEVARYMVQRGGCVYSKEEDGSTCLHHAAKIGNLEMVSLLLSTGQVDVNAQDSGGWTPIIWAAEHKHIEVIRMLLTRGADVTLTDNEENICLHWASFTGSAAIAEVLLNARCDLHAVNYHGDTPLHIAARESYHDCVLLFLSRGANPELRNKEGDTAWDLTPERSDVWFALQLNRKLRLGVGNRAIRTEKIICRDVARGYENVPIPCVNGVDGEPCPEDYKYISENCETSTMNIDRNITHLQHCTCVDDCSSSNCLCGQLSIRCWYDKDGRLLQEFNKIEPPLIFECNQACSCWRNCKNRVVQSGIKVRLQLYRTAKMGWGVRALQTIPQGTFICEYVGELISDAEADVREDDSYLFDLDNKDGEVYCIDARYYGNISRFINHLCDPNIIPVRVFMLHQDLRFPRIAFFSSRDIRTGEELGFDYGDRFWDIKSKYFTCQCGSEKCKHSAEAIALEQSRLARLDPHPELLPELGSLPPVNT
# Experiment: qHTS Assay for Inhibitors of Histone Lysine Methyltransferase G9a; further: nearly all actives have a fitted effect of over 75% in size
# Conditions: G9a H3K9 monomethylation, AlphaScreen, 2 h; activity, negative = inhibition: at 59 µM (top of the series) unless noted
# Outline: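 AlphaScreen detection with an anti-monomethyl H3K9 antibody quantified product after a 2 h room-temperature reaction containing 500 nM biotinylated H3K9 peptide, 20 µM SAM and 20 nM enzyme, which had been preincubated 15 min with compound.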
# On the % scale 0 is the no-effect control and ±100 the full control effect; potency means the concentration at half of the fitted maximal effect; tags describe the fitted curve by direction and shape.
SMILES,Potency,"activity, negative = inhibition"
COc1cc(/C(C)=N/NC(=O)CSc2nncn2C)ccc1OCc1ccccc1Cl,"inconclusive: 8.91 µM [inhibitor, full curve, poor fit]",–
COc1ccc(-c2nn(-c3ccccc3)cc2C2CC(c3cccs3)=NN2C(=O)CCCC(=O)O)cc1 (configuration not stated),"inconclusive: 70.8 µM [inhibitor, partial curve, poor fit]",–
Nc1c(C(=O)O)ccc2c1C(=O)c1ccccc1C2=O,active: 35.5 µM,–
O=C(Nc1ccnn1C1CCN(C(=O)c2cccc(Cl)c2)CC1)C1CCOC1 (configuration not stated),inactive,–
CC(=O)c1sc2nc(-c3cccs3)ccc2c1N,active: 1.58 µM,–
O=C(C1CCCCN1S(=O)(=O)c1ccc(F)cc1)N1CCN(c2ccccc2F)CC1 (configuration not stated),"inconclusive: 0.794 µM [inhibitor, partial curve, poor fit]",–
CCC(C)(C)NC(=O)CN(C(=O)CCC(=O)Nc1nccs1)c1ccc(C)cc1,inactive,–
C=CCn1c(O)c(N=NC(=O)CNC(=O)c2ccncc2)c2ccccc21,"inconclusive: 11.2 µM [inhibitor, partial curve, poor fit]",–
CC(=O)NC1C(=O)N=C(SCC(=O)NC2CCCCC2)NC1=O (configuration not stated),"inconclusive: 79.4 µM [inhibitor, partial curve, poor fit]",–
COc1ccc(C(=O)C2CCCN(Cc3sc(N4CCCC4)nc3Cl)C2)c(OC)c1 (configuration not stated),"inconclusive: 44.7 µM [inhibitor, partial curve]",–
CCCCC(=O)NC1CC(=O)N(c2ccc3c(c2)OCCO3)C1 (configuration not stated),inactive,–
COC(=O)c1c(C(=O)OC)c2n(c1C)CCC2,"inconclusive: 89.1 µM [inhibitor, partial curve, poor fit]",–
O=C(NCCC1=CCCCC1)c1ccc2c(c1)N(Cc1cccc(Cl)c1)C(=O)c1ccccc1S2=O (configuration not stated),inactive,–
CC(C)CC1(C)NC(=O)N(CC(=O)NC(=O)Nc2ccc3c(c2)OCCO3)C1=O (configuration not stated),"inconclusive: 17.8 µM [inhibitor, partial curve, poor fit]",–
CCN(CC)S(=O)(=O)c1ccc(OC)c(-n2cnnn2)c1,inactive,–
CC(=O)Nc1ccc(S(=O)(=O)Oc2cccc(/C=N/N=C3/NC(=O)C(CC(=O)O)S3)c2)cc1 (configuration not stated),"inconclusive: 56.2 µM [inhibitor, partial curve, poor fit]",–
CC(C)C(C(=O)O)N1CCS(=O)(=O)CC1 (configuration not stated),"inconclusive: 0.282 µM [inhibitor, partial curve, poor fit]",–
COCCn1c(SCc2c(F)cccc2Cl)nc2c1c(=O)[nH]c(=O)n2C,"inconclusive: 2.82 µM [inhibitor, partial curve, poor fit]",–
CC1CCCN(C(=O)CSc2nnc3n(C4CCCC4)c(=O)c4ccccc4n23)C1 (configuration not stated),"inconclusive: 0.316 µM [inhibitor, full curve, poor fit]",–
Cc1ccc(CN2CCN(/N=C/c3ccc(C(F)(F)F)cc3)CC2)c(C)c1,"inconclusive: 39.8 µM [inhibitor, single point]",–
O=C(O)CCn1cc(/C=C2\SC(=S)NC2=O)c(-c2ccccc2)n1,"inconclusive: 56.2 µM [inhibitor, partial curve, poor fit]",–
COc1ccc(CNc2nc(NCc3ccc(OC)cc3)c3[nH]cnc3n2)cc1,–,inconclusive: -58.5% [inhibitor]
O=C(Nc1nc2c(s1)CCCC2)C1COc2ccccc2O1 (configuration not stated),"inconclusive: 70.8 µM [inhibitor, partial curve, poor fit]",–

SMILES,Potency,"activity, negative = inhibition"
COc1ccc(NC(=S)N(Cc2ccc(Cl)cc2)Cc2ccc(C(=O)O)cc2)cc1Cl,"inconclusive: 28.2 µM [inhibitor, full curve, poor fit]",–
CCc1nc2oc3ccccc3c(=O)c2c(=O)n1Cc1ccccc1,"inconclusive: 79.4 µM [inhibitor, partial curve, poor fit]",–
O=C(Cc1ccc(Cl)c(Cl)c1)NC1CCCCCC1,inactive,–
CC(C)c1ccc(S(=O)(=O)c2ccc(NN)cc2)cc1,active: 10 µM,–
COC(=O)c1cc2oc3ccccc3c2n1Cc1nc(-c2ccc(Cl)cc2)oc1C,inactive,–
O=C(NCc1ccccc1)C(=O)Nc1nc(C23CC4CC(CC(C4)C2)C3)cs1,inactive,–
C(=C\n1nnc2ccccc21)/c1ccc[nH]1,"inconclusive: 3.55 µM [inhibitor, single point]",–
CN1CCN(c2ccc(Cl)cc2NC(=O)c2ccc(=O)n(C)n2)CC1,"inconclusive: 89.1 µM [inhibitor, partial curve, poor fit]",–
Cc1c(N=C2NN=C(c3c[nH]c4ccccc34)CS2)c(=O)n(-c2ccccc2)n1C,active: 44.7 µM,–
CC(=O)NS(=O)(=O)c1ccc(N=c2ssc3c2-c2cc(C)c(C)cc2NC3(C)C)cc1,active: 5.01 µM,–
Cc1ccc(C)c(N2CCN(C(=O)C3CCCN(S(=O)(=O)c4c(C)noc4C)C3)CC2)c1 (configuration not stated),"inconclusive: 31.6 µM [inhibitor, partial curve, poor fit]",–
S=C(Sc1ccc(Cl)cc1)Sc1ccc(Cl)cc1,"inconclusive: 70.8 µM [inhibitor, single point]",–
O=C(CCl)NNc1nc(-c2ccccc2)c2cc(Cl)ccc2n1,"inconclusive: 89.1 µM [inhibitor, single point]",–
O=C1c2cc([N+](=O)[O-])cc3cc([N+](=O)[O-])cc(c23)C(=O)N1c1ccccn1,"inconclusive: 4.47 µM [inhibitor, full curve, poor fit]",–
Cn1c(C(=O)N(Cc2ccccc2)Cc2ccccn2)cc2sccc21,–,inconclusive: -65.9% [inhibitor]
Nc1c(N(Cc2ccco2)C(=O)c2cccc(Cl)c2)c(=O)[nH]c(=O)n1Cc1ccccc1,"inconclusive: 35.5 µM [inhibitor, single point]",–
CCOC(=O)C1(CC2CC2)CCN(Cc2cc(Cl)c(O)c(OC)c2)CC1,"inconclusive: 56.2 µM [inhibitor, partial curve, poor fit]",–
COC(=O)COc1ccc(NC(=O)C(c2ccccc2)c2ccccc2)cc1,inactive,–
O=C(CNC(=O)c1ccco1)NCC(=O)OCc1ccccc1Br,–,inconclusive: -67.1% [inhibitor]
N#Cc1nc(-c2ccc(OCc3ccccc3)cc2)oc1NCCCN1CCOCC1,–,inconclusive: -82.5% [inhibitor]
COC(=O)C1c2ccccc2-c2ccccc21,"inconclusive: 89.1 µM [inhibitor, partial curve, poor fit]",–
CN(C)S(=O)(=O)c1cccc(NC(=S)NCCc2ccccn2)c1,"inconclusive: 50.1 µM [inhibitor, partial curve, poor fit]",–
CCCC(O)(c1ccc(OC)cc1)C(CN(C)C)c1ccccc1 (configuration not stated),"inconclusive: 89.1 µM [inhibitor, single point]",–

SMILES,Potency,"activity, negative = inhibition"
CSc1ccc(CCNC(=O)c2cc(C)nc3c2c(C)nn3-c2ccccc2)cc1,inactive,–
Cc1c(Br)cc(C(=O)NCc2ccco2)c(C)c1C,–,inconclusive: -90.6% [inhibitor]
COc1ccc(-c2nnc(SCC(=O)NCCc3ccc(OC)c(OC)c3)nc2-c2ccc(OC)cc2)cc1,active: 8.91 µM,–
CN(c1ccccc1)S(=O)(=O)c1ccc(C(=O)NCc2ccccc2CN2CCCC2)cc1,"inconclusive: 89.1 µM [inhibitor, single point]",–
O=C(c1cc(F)c(F)cc1Cl)N1CCN(S(=O)(=O)c2cccs2)CC1,"inconclusive: 50.1 µM [inhibitor, partial curve]",–
O=C(CN1C(=O)C(c2ccc(F)cc2)=NC12CCCCCC2)Nc1ccccc1Cl,inactive,–
Cc1cc(C)c(NC(=O)Cn2nc(-c3ccncc3)ccc2=O)c(C)c1,inactive,–
O=C(O)CCCC(=O)Nc1ccc(OCc2nc3ccccc3s2)cc1,active: 3.16 µM,–
Oc1ccc(/C=C/c2ccc(/C=C/c3ccc(O)cc3)c(Br)c2)cc1,"inconclusive: 21.2 µM [inhibitor, partial curve]",–
C=CCNc1nnc(SC2CC(=O)N(c3ccc(OCCC)cc3)C2=O)s1 (configuration not stated),active: 8.91 µM,–
COc1ccc(C2=C(C)C(=NCCCN3CCN(c4cc(C)ccc4C)CC3)NS2(=O)=O)cc1,inactive,–
N=c1c2c(-c3ccccc3)c(-c3ccccc3)n(Cc3ccco3)c2ncn1CCCn1ccnc1,"inconclusive: 39.8 µM [inhibitor, single point]",–
Cc1cccc(-c2noc(-c3ccc(Cl)cc3[N+](=O)[O-])n2)c1,active: 25.1 µM,–
COc1ccccc1-c1nc2c(c(SCC(=O)Nc3ccc(C)c(C)c3)n1)Cc1c(CO)cnc(C)c1O2,"inconclusive: 11.2 µM [inhibitor, partial curve, poor fit]",–
O=C(Nc1nc2ccccc2s1)c1ccc(F)cc1,inactive,–
Cc1cc(=O)[nH]c(SCC(=O)Nc2ccnc3ccccc23)n1,"inconclusive: 39.8 µM [inhibitor, partial curve, poor fit]",–
CS(=O)(=O)N1CCC2(CC1)CN(C(=O)Nc1cccc(F)c1)C2,–,inactive: -0.75% [at 12.7 µM]
CCNC(C(=O)c1c[nH]c2c(CC)cccc12)c1ccccc1 (configuration not stated),"inconclusive: 89.1 µM [inhibitor, partial curve, poor fit]",–
COCCCNC(=O)c1ccccc1N(Cc1ccccc1)S(=O)(=O)c1ccccc1,"inconclusive: 100 µM [inhibitor, single point]",–
Cc1sc2nc(CSCC(=O)Nc3c(F)cccc3F)[nH]c(=O)c2c1C,–,inactive: 14.6% [at 2.33 µM]
CC1=C(C(=O)OC(C)C)C(c2cccc([N+](=O)[O-])c2)C(C(=O)OC2CN(C(c3ccccc3)c3ccccc3)C2)=C(N)N1 (configuration not stated),–,inactive: -7.06% [at 12.7 µM]
